Screen size: about 310,000 compounds; about 2,200 (0.71%) showed an effect of 50% or more. The effect is printed as a negative number. The list shows a part of the results.
molecular target: human ether-à-go-go-related gene (hERG) potassium channel (human, UniProt Q12809); assay: primary screen, population patch clamp on CHO cells stably expressing hERG
Sequence (Q12809 whole entry, looked up): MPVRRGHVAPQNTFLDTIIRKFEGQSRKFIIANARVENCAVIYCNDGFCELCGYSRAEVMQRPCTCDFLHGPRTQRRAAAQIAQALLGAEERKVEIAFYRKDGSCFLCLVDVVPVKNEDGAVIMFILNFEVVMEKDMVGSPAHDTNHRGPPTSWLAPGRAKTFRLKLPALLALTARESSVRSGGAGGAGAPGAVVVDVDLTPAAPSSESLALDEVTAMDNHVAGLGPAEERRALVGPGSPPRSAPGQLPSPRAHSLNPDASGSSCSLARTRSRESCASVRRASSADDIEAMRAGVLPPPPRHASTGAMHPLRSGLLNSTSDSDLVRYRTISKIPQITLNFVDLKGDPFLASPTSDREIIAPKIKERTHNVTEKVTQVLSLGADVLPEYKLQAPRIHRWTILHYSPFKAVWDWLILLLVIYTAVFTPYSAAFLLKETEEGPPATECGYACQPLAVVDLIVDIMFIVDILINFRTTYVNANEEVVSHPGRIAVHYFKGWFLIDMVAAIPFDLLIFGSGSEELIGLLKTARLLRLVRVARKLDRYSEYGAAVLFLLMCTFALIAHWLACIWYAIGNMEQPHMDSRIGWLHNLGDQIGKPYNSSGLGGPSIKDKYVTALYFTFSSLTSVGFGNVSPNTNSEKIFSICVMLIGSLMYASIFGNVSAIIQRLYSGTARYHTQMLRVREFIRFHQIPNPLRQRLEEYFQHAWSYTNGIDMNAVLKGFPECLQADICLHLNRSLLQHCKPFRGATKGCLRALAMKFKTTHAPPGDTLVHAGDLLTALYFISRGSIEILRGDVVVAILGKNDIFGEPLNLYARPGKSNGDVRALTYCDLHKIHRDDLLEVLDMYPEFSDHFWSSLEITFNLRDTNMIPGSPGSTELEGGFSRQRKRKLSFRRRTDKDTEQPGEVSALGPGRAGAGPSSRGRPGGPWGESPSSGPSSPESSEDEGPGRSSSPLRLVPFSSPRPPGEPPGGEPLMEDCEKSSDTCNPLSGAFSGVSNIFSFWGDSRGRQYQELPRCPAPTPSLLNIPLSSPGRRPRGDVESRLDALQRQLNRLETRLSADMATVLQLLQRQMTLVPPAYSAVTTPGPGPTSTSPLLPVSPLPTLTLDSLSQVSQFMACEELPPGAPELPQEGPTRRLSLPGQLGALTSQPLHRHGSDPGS

| SMILES | hERG current change (%, negative = inhibition) at 1uM [%] |
| --- | --- |
| Cc1nn(-c2ccccc2)c2c1cc1c(=O)n(C)c(=O)nc-1n2-c1ccccc1F | 10.6 |
| Cc1ccc2nc3c(nc2c1C)CCCC3 | 9.66 |
| O=C(Nc1ccc(SC(F)F)cc1)C1=CC=CN2CCS(=O)(=O)N=C12 | -4.25 |
| Cc1ccc(S(=O)(=O)NCC2NCCc3ccccc32)cc1 (stereo not shown) | 1.8 |
| CC(C)c1nnc(NC(=O)C2c3ccccc3Oc3ccccc32)s1 | 12.3 |
| Cc1ccc(S(=O)(=O)N2CCN(C(=O)CN3C(=O)c4ccc([N+](=O)[O-])cc4C3=O)CC2)cc1C | 13.2 |
| Cn1cc(CN2CCc3c([nH]c4ccccc34)C2C(C)(C)C)cn1 (stereo not shown) | -3.25 |
| CN1CCN(c2nc3ccccn3c(=O)c2C=C(C#N)C#N)CC1 | 12.9 |
| O=C(COc1ccccc1)N(Cc1nnc(-c2ccccc2Cl)o1)C1CC1 | 9.68 |
| CN1/C(=C\C(=O)COc2ccc3c(c2)OCO3)C(C)(C)c2ccccc21 | 9.25 |
| CCCCN1C(C)=CC(=C2C(=O)c3ccccc3C2=O)C=C1C | 6.34 |
| COc1ccc(CNC2CCCCC2C)c(OC)c1 (stereo not shown) | -9.1 |
| C=CCN1C(=O)c2ccc(C(=O)OCC(=O)N(CC)C3CCS(=O)(=O)C3)cc2C1=O (stereo not shown) | 2.52 |
| CCOc1ccc(C(=O)N2CCCC2C(=O)O)cc1 (stereo not shown) | 21.6 |
| Cc1ccc(S(=O)(=O)c2c(N)n(NC(=O)c3ccccc3C)c3nc4ccccc4nc23)cc1 | 5.01 |
| CCCCN(C)CCn1c(=S)[nH]c2ccc(N3CCOCC3)cc2c1=O | -18.4 |
| Cc1ccc(S(=O)(=O)NCCNC(=O)c2nonc2N)cc1 | 7.29 |
| Brc1ccccc1OCCCN1CCCCCC1.O=C(O)C(=O)O | -59.2 |
| O=C(Nc1ccc(F)c(F)c1)c1oc2ccccc2c1NC(=O)C1CCCO1 (stereo not shown) | 11.2 |
| Cn1ccnc1SCc1cn2cc(Br)ccc2n1 | 6.9 |
| COc1ccc2c(c1OC)C(=O)N1N=C(c3ccc(Cl)cc3)CC21 (stereo not shown) | -3.88 |
| CCc1nc(C#N)c(N2CCCCC2)o1 | 9.88 |

| SMILES | hERG current change (%, negative = inhibition) at 1uM [%] |
| --- | --- |
| CN(C)NC(=S)Nc1ccc2nc(-c3ccccn3)c(-c3ccccn3)nc2c1 | 15.5 |
| CCN(CC)C(=O)CSc1nnc(-c2cccnc2)n1CCc1ccccc1 | -0.995 |
| CC(C)NC(=O)Cn1c(SCC(=O)N2CCCc3ccccc32)nc2ccccc21 | 13.5 |
| CC(C)[C@H](NC(=O)[C@@H]1Cc2ccccc2CN1C(=O)OC(C)(C)C)C(=O)NC1CCCC1 | 10.8 |
| CCOc1ccc(-c2c(C(=O)N/N=C/c3cccnc3)nnn2-c2nonc2N)cc1 | 12.7 |
| COc1cc(C(=O)NCCC(=O)NCCN2CCCCCC2)cc(OC)c1OC | 1.92 |
| Oc1ccc(-c2nnc(-c3ccc(O)cc3)nn2)cc1 | 11.5 |
| CC(=O)c1ccc(NC(=S)N2CCN(c3cccc(Cl)c3)CC2)cc1 | 12.6 |
| CCOc1ccc(C(=O)Nc2ccccc2C#N)cc1[N+](=O)[O-] | -24.3 |
| CCOC(=O)N1CCN(C(=O)CN(c2cc(Cl)ccc2OC)S(=O)(=O)c2ccccc2)CC1 | 17.7 |
| COc1ccc(C2SCC(=O)N2c2c(C)n(C)n(-c3ccccc3)c2=O)cc1 (stereo not shown) | -1.72 |
| COc1ccc(Cl)c(NC(=O)C/C(C)=N/NC(=O)CCc2ccccc2)c1 | 8.11 |
| CN1CCN(c2ccc([N+](=O)[O-])cc2/C=N/NC(=O)c2cccc([N+](=O)[O-])c2)CC1 | -8.39 |
| CC(=O)c1ccccc1OCCCN1CCCCC1.O=C(O)C(=O)O | -6.05 |
| N#Cc1cccnc1N1CCN(C(=O)c2ccco2)CC1 | 12.7 |
| N/C(=N\S(=O)(=O)c1cc(C(F)(F)F)cc(C(F)(F)F)c1)c1cccs1 | 14.4 |
| CCOCCCn1c(SCC(=O)N(C)C2CCS(=O)(=O)C2)nc2ccccc2c1=O (stereo not shown) | -0.296 |
| COc1ccc(NC(=O)N2C3CCCC2CC(NC(=O)c2ccccc2)C3)cc1 (stereo not shown) | -1.23 |
| C=C(C)CNC(=S)NNC(=O)c1ccc(Br)cc1 | 2.16 |
| COc1ccc(OC)c(S(=O)(=O)Nc2ccc(-c3ccc4nnc(C)n4n3)cc2)c1 | 6.77 |
| CC(NC(=O)c1cccc(N2CCCC2=O)c1)c1ccc2c(c1)OCCO2 (stereo not shown) | 5.41 |
| CN(Cc1nc(Cc2cccc(F)c2)no1)CC1CCOCC1 | 2.99 |

| SMILES | hERG current change (%, negative = inhibition) at 1uM [%] |
| --- | --- |
| CSCCC1NC(=O)N(CC(=O)Nc2cccc3ccccc23)C1=O (stereo not shown) | 12.5 |
| Cc1c(C)c2ccc(OCC(=O)NCCc3c[nH]c4ccccc34)c(C)c2oc1=O | 7.72 |
| COc1ccc(CCNC(=O)C(=O)NN=C2CCCCCCC2)cc1OC | 9.71 |
| Cc1csc2c(=O)sc(NC(=O)c3ccco3)nc12 | 12.4 |
| COc1ccc(C(C)NC(=O)c2ccc(Br)cc2)cc1OC (stereo not shown) | 1.56 |
| Cc1oc(-c2ccc(Cl)cc2)nc1CN1CCC(C(=O)N2CCc3ccccc3C2)CC1 | -56.7 |
| COc1ccc(NC(=O)CNS(=O)(=O)c2cccs2)c(OC)c1 | 3.03 |
| COC(=O)CCC(=O)OC1(C)C(=O)C2=CN(C3CC3)C(c3ccc(OC)cc3)=CC2=C(Br)C1=O (stereo not shown) | 12.2 |
| COc1cc(OC)c(OC)cc1CNCCc1cccc(F)c1.O=C(O)C(=O)O | -4.29 |
| O=C(Nc1ccccc1)Nc1ccc(Cl)c([N+](=O)[O-])c1 | 14.8 |
| O=C(c1cccn2c(=O)c3cc4ccccc4cc3nc12)N1CCN(c2ccccc2)CC1 | -2.39 |
| Cc1ccc(NC(=O)CSc2nc(N)cc(N)n2)cc1S(=O)(=O)N1CCOCC1 | 14.8 |
| CC12CCC(=O)N1C(C(=O)Nc1cccc(S(=O)(=O)N3CCCCCC3)c1)CS2 (stereo not shown) | -29.7 |
| COc1ccc(N(CC(=O)NN=C2CCCCCCC2)S(=O)(=O)c2ccccc2)cc1Cl | 11.8 |
| O=C(Nc1ccnc(-c2cccnc2)n1)c1ccc(Cl)c(Cl)c1 | -0.376 |
| Cc1cc(Cl)ccc1OCc1n[nH]c(=S)n1C1CCCCC1 | 14.2 |
| O=C1CNCc2[nH]c3ccccc3c2N1c1ccccc1 | -0.52 |
| CC(C)[C@H](NC(=O)NCCc1ccc(Cl)cc1)C(=O)O | -6.57 |
| Cc1noc(C)c1S(=O)(=O)N(CC(=O)NC(C)c1ccccc1)c1ccc(C(C)C)cc1 (stereo not shown) | 10.1 |
| Cc1cc(C)c(NC(=O)CSc2nnc(Cc3cccn3C)n2-c2ccc(F)cc2)c(C)c1 | 9.06 |
| O=C(O)C1CCN(S(=O)(=O)Cc2ccccc2)CC1 | 14.8 |
| CCOc1ccc(S(=O)(=O)NCCSCc2ccco2)cc1 | -1.82 |

| SMILES | hERG current change (%, negative = inhibition) at 1uM [%] |
| --- | --- |
| Cc1occc1C(=O)Nc1cc(C(C)(C)C)on1 | -11.3 |
| O=C(N=C1SC2CS(=O)(=O)CC2N1c1ccc(Br)cc1)C1CCCO1 (stereo not shown) | 9.7 |
| COc1ccc(N/C=C/C(=O)c2ccc(Oc3ncccn3)cc2)cc1 | 11 |
| CCOC(=O)CCSc1n[nH]c(=S)s1 | 9.9 |
| O=C(Nc1ccccc1F)c1ccc(CSc2ncccn2)cc1 | 11.4 |
| CC(=O)c1cccc(NC=C2C(=O)OC3(CCCCC3)OC2=O)c1 | -10.3 |
| Cc1cccc(NC(=S)NCCc2ccc(Cl)cc2)c1C | 14.1 |
| O=C(Cn1ncc2c3ccccc3n(Cc3ccccc3)c2c1=O)NCCN1CCOCC1 | -18 |
| Cc1ccc(CC2CC(=O)N(c3nc4ccccc4n3C)C2=O)cc1 (stereo not shown) | 1.89 |
| Cc1ccc(C)c(OCC(=O)Nc2ccccc2C(=O)N2CCOCC2)c1 | 15.7 |
| COc1cccc(NC(=O)NCCCN2CCN(c3ccc(F)cc3)CC2)c1 | -51 |
| COC(=O)c1ccc(S(=O)(=O)N2CCN(C)CC2)n1C | 12.6 |
| Cc1ccc(S(=O)(=O)N2CCN(S(=O)(=O)N3CCCCCC3)CC2)cc1 | 17.6 |
| CC(=O)N1CCC(N(CCCOC(C)C)C(=O)Nc2ccc(C)c(C)c2)CC1 | 1.97 |
| COc1ccc(C(=O)Nc2ccccc2[N+](=O)[O-])cc1S(=O)(=O)N1CCOCC1 | 7.55 |
| Cc1cc2cc(CCNC(=O)c3ccc(Br)o3)c(=O)[nH]c2cc1C | -4.97 |
| COc1ccc(/C=C/C(=O)N(C)C2CCS(=O)(=O)C2)cc1OC (stereo not shown) | 9.69 |
| O=C(Cc1ccc(Br)cc1)c1ccc(O)cc1O | 14.7 |
| COC(=O)c1c(C)nn(-c2ccc(F)c(Cl)c2)c1-c1cc(C)on1 | 7.85 |
| O=C(CNC(=O)c1ccccc1F)OCc1nc2ccc(Cl)cc2n1CCO | 5.8 |
| O=C(NCC(c1ccco1)N1CCc2ccccc21)c1cccc(F)c1 (stereo not shown) | 4.98 |
| O=C(N(c1ccccn1)c1ccccn1)C12CC3CC(CC(Cl)(C3)C1)C2 | 19.1 |
